# Experimental data as given in PubChem BioAssay (NCATS).
# Where “and” joins values, the source holds several entries; their conditions need not be identical. Equal entries are not always repeated. Inconclusive means that the source gave no clear call. Such entries were picked first, then a sample of the others. Where the call is inconclusive, the potency comes from a doubtful curve fit. Calls of active or inactive are those of the source. Calls come from the whole dose curve; as a rule, active = well fitted cell-killing curve with a large enough effect; inconclusive = small, poorly fitted or top-dose-only effect, or effect the other way; inactive = no such curve, though single readings can be large or run the other way.
# Assay: Viability qHTS for spleen associated tyrosine kinase inhibitor (SYKi) naive MV4-11 cells (AID 1963823); note: nearly all actives have a fitted effect of over 40% in size
# Conditions: MV4-11 AML viability, CellTiter-Glo luminescence, 72 h; viability (% of control): at 45 µM (top of the series)
# How it was run: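 qHTS, SYK inhibitor-naive MV4-11; 500 cells/well; 72 hr compound exposure, 37 C; CellTiter-Glo added, 10 min RT; luminescence read.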
# Potency is the fitted concentration of half-maximal effect; tags give direction and shape of the fitted curve.
Compound,Potency,viability (% of control)
CC[N+]1(C/C2=C/CCCCCC2)CCC(NC(=O)C2c3cc(Cl)ccc3Oc3ccc(Cl)cc32)CC1 (stereo not given),active: 6.51 µM,–
CCOc1c(N2CCOCC2)cnn(C)c1=O,"inconclusive: 13.3 µM [cytotoxic, partial curve, poor fit]",–
CC(=O)C1(C)CCC2C3C=C(C)C4=CC(=O)CCC4(C)C3CCC21C (stereo not given),active: 5.8 µM,–
CCC(C)C(=O)O[C@H]1CCC=C2C=C[C@H](C)[C@H](CC[C@@H](O)C[C@@H](O)CC(=O)O)[C@H]21 (stereo not given in full),"inconclusive: 7.96 µM [cytotoxic, single point]",–
COc1cc(NC(=O)c2cccc(-n3cc(NC(=O)Nc4cccc(C)c4)cn3)c2)cc(OC)c1OC,"inconclusive: 6.51 µM [cytotoxic, partial curve]",–
CCCCC(=O)N1c2ccccc2NC2=C(C(=O)CCC2)C1c1ccccc1Cl (stereo not given),"inconclusive: 8.2 µM [cytotoxic, partial curve]",–
COc1cc(O[C@@H]2O[C@H](CO[C@H]3OC[C@](O)(CO)[C@H]3O)[C@@H](O)[C@H](O)[C@H]2O)cc(OC)c1O,inactive,–
Cc1ccc(CNc2ncnc3ccc(-c4ccc(CO)o4)cc23)o1,"inconclusive: 2.31 µM [cytotoxic, full curve]",–
CC(C)(O)c1ccc2c(c1)C(O)C[C@H]1[C@](C)(C(=O)O)CCC[C@]21C (stereo not given in full),inactive,–
CO[C@@]1(NC(=O)CSC[C@@H](N)C(=O)O)C(=O)N2C(C(=O)O)=C(CSc3nnnn3C)CS[C@@H]21,inactive,–
C[C@@H]1O[C@@H](O[C@H]2[C@H](O[C@H]3[C@H](O[C@H]4CC[C@@]5(C)C(CC[C@]6(C)C5CC=C5[C@@H]7CC(C)(C)C[C@@H](O)[C@]7(C)CC[C@]56C)[C@@]4(C)CO)O[C@H](C(=O)O)[C@@H](O)[C@@H]3O)O[C@H](C(=O)O)[C@H](O)[C@@H]2O)[C@H](O)[C@H](O)[C@H]1O (stereo not given in full),–,inactive: 83.8% [at 9.25 µM]
Nc1ncnc2c1c(I)cn2[C@@H]1C[C@H](N)[C@@H](O)[C@H]1O,active: 2.91 µM,–
COc1cc2c(cc1OC(C)C)[C@H](c1ccc(Cl)cc1)N(c1ccc(N(C)CC3CCC(N4CCN(C)C(=O)C4)CC3)cc1)C(=O)C2 (stereo not given in full),"inconclusive: 14.6 µM [cytotoxic, partial curve] and active: 11.8 µM",–
CC(=O)Nc1nnc(S(N)(=O)=O)s1,inactive,–
CSC(=O)OCC1=C[C@@H]2OC(=O)C3=CO[C@@H](O[C@@H]4O[C@H](CO)[C@@H](O)[C@H](O)[C@H]4O)[C@H]1[C@@H]32,inactive,–
CC(C)n1cnc2c(-c3cnc(N)nc3)nc(N3CCOCC3)nc21,"inconclusive: 0.317 µM [cytotoxic, full curve]",–
Nc1nc(Nc2ccc3c(c2)CCC(N2CCCC2)CC3)nn1-c1cc2c(nn1)-c1ccccc1CCC2 (stereo not given),active: 0.231 µM,–
CC(CSC(=O)c1ccccc1)C(=O)N1C[C@@H](Sc2ccccc2)C[C@H]1C(=O)O (stereo not given in full),"inconclusive: 3.66 µM [cytotoxic, partial curve, poor fit]",–
O=C1NC(c2cccc([N+](=O)[O-])c2)=CCN1c1ccccc1O,inactive,–
CC(=O)c1ccc2c(c1)[C@H](NC(=O)c1ccc(F)c(Cl)c1)[C@H](O)C(C)(C)O2,inactive,–

Compound,Potency,viability (% of control)
CCCC1(CCC)CCC2(CCN(CCCN(CC)CC)C2)CC1,active: 2.35 µM,–
CC1CCN(C(c2ccc(F)cc2)c2ccc(C(C)C(=O)O)cc2-c2ccc(C(F)(F)F)cc2)CC1 (stereo not given),"inconclusive: 9.2 µM [cytotoxic, partial curve]",–
C[C@@H]1O[C@@H](O[C@H]2[C@H](O)[C@@H](O[C@@H]3O[C@H](CO)[C@@H](O)[C@H](O[C@@H]4O[C@H](CO)[C@@H](O)[C@H](O)[C@H]4O)[C@H]3O)[C@H](O[C@H]3CC[C@@]4(C)C(=CC[C@@H]5C4CC[C@@]4(C)C5C[C@@H]5OC6(CC[C@@](C)(CO[C@@H]7O[C@H](CO)[C@@H](O)[C@H](O)[C@H]7O)O6)[C@@H](C)[C@@H]54)C3)O[C@@H]2CO)[C@H](O)[C@H](O)[C@H]1O (stereo not given in full),"inconclusive: 0.0019 µM [rising, full curve, poor fit]",–
C=CC(=O)Nc1cccc(Nc2nc(Nc3ccccc3)ncc2C)c1,"inconclusive: 0.651 µM [cytotoxic, full curve]",–
C[C@H](N)[C@H](O)c1cccc(O)c1,inactive,–
CC1CCC2(C=O)C(CO)=CCCC2C1(C)CC(=O)O (stereo not given),inactive,–
COc1c2cc(c(O[C@@H]3O[C@H](CO)[C@@H](O)[C@H](O)[C@H]3O)c1OC)CCCCC(O)CCc1ccc(O)c-2c1 (stereo not given in full),inactive,–
COc1cc2c(cc1NS(=O)(=O)c1ccc(Br)cc1C)n(C)c(=O)n2C,active: 2.31 µM,–
Cc1cc2occ(CN(C)CCN(C)Cc3cn(-c4cccc(C(F)(F)F)c4)c4ccccc34)c(=O)c2cc1C,"inconclusive: 2.91 µM [cytotoxic, full curve]",–
OC[C@H]1O[C@@H](OCCc2ccccc2)[C@H](O[C@@H]2OC[C@](O)(CO)[C@H]2O)[C@@H](O)[C@@H]1O,inactive,–
O=S(=O)(NC1CCC(c2cc(F)ccc2F)(S(=O)(=O)c2ccc(Cl)cc2)CC1)C(F)(F)F (stereo not given),"inconclusive: 23.1 µM [cytotoxic, single point]",–
O=C1Cc2c([nH]c3ccc(Br)cc23)-c2ccccc2N1,"inconclusive: 3.66 µM [cytotoxic, full curve]",–
CCCCS(=O)(=O)N[C@@H](Cc1ccc(OCCCCC2CCNCC2)cc1)C(=O)O,inactive,–
O=C(NCc1ccc(S(=O)(=O)c2cc(F)cc(F)c2)cc1)c1ccc2nccn2c1,"inconclusive: 0.0082 µM [cytotoxic, full curve, poor fit]",–
CCOC(=O)COc1ccc2c(c1)C[C@@H](NC[C@H](O)c1cccc(Cl)c1)CC2,active: 18.4 µM,–
Cc1ccc(F)cc1S(=O)(=O)N[C@@H]1CCN(Cc2ccc(OC(C)C)cc2)C1,"inconclusive: 20.6 µM [cytotoxic, partial curve]",–
CC[C@H](CO)Nc1nc(NCc2ccc(-c3ccccn3)cc2)c2ncn(C(C)C)c2n1,active: 0.13 µM,–
COc1ccc(C[C@H]2COC(=O)[C@@H]2Cc2ccc(O[C@@H]3O[C@H](CO)[C@@H](O)[C@H](O)[C@H]3O)c(OC)c2)cc1OC,"inconclusive: 1.12 µM [cytotoxic, full curve]",–
C[N+](C)(C)CC[N+]1(C)Cc2c(Cl)c(Cl)c(Cl)c(Cl)c2C1,inactive,–
CC(C)(C)[C@H](NC(=O)c1ccc(N)c(Cl)c1)C(=O)N1CCC[C@H]1C(=O)N[C@H](C#N)CC(=O)O,inactive,–
